Measured values reported in PubChem BioAssay AID686979 (National Center for Advancing Translational Sciences (NCATS), 2013).
Screen size: about 420,000 compounds; about 50,000 (12%) were called active. Inconclusive results, whose numbers are uncertain, are shown with a selection of clear calls. Calls come from the whole dose curve; as a rule, active = well fitted inhibition curve with a large enough effect; inconclusive = small, poorly fitted or top-dose-only effect; inactive = flat fitted curve, though single readings scatter. Potencies of inconclusive entries are left out as doubtful fits.

Assay: qHTS for Inhibitors of human tyrosyl-DNA phosphodiesterase 1 (TDP1): qHTS in cells in presence of CPT; note: nearly all actives have a fitted effect of over 55% in size
Details: chicken DT40 Tdp1-/-;hTDP1 cells + 20 nM CPT, ATP luminescence, 48 h; activity change, negative = growth inhibition: at 46.2 µM (top of the series) unless noted
Method in brief: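 Chicken DT40 Tdp1-/- cells complemented with human TDP1, 400 cells/well, exposed to compounds plus 20 nM camptothecin for at least 48 h at 37 C; viability read as ATP content by CellTiter-Glo luminescence.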
% is set by controls: 0 for no effect and ±100 for the full control effect; potency is the fitted concentration of half-maximal effect; tags give direction and shape of the fitted curve.

Compound | Potency | activity change, negative = growth inhibition
Cc1ccc(S(=O)(=O)N2[C@H](CC(=O)c3ccc(F)cc3)OC[C@@H]2C)cc1 | inconclusive [inhibitor, single point] | 
Cc1c(C(=O)NCc2cccnc2)oc2ccc(S(=O)(=O)N3CCCCCC3)cc12 | inconclusive [inhibitor, single point] | 
CC(C)c1ccc(NC(=S)N2CCCC(c3ccc(F)cc3)=N2)cc1 | inconclusive [inhibitor, partial curve] | 
Cc1cc(COc2ccccc2OCc2cc(C)no2)on1 |  | inactive: -25.2%
Cc1c(C(=O)O)cccc1-c1ccc(C=O)o1 | inconclusive [inhibitor, single point] | 
COc1ccc2cnoc(=O)c2c1OC |  | inactive: 17.1% [at 9.04 µM]
Cc1ccc(S(=O)(=O)Cn2nnnc2CN2CCN(Cc3ccc4c(c3)OCO4)CC2)cc1 | inconclusive [inhibitor, single point] | 
Cc1cccc(NC(=O)CSc2nc3ccc(N4C(=O)c5ccccc5C4=O)cc3s2)c1C | inconclusive [inhibitor, full curve, poor fit] | 
Cc1ccc(C(=O)NCC(=O)NCC(=O)OCc2ccc(Cl)cc2)cc1 |  | inactive: -13.8%
O=C(c1cccc(F)c1)N1CCN(c2cccc(C(F)(F)F)c2)CC1 | inconclusive [inhibitor, partial curve, poor fit] | 
O=c1[nH]c2sc3c(c2c(=O)n1Cc1ccccc1)CCC3 |  | inactive: -9.89%
Cc1ccc(/C(O)=C/C(=O)C(=O)NC23CC4CC(CC(C4)C2)C3)cc1 | inconclusive [inhibitor, single point] | 
CN(CCC(=O)Nc1ccc(Br)cc1)Cc1ccccc1 | inconclusive [inhibitor, single point] | 
COCCNS(=O)(=O)c1ccc2c(c1)Cc1cc(S(=O)(=O)NCCOC)ccc1-2 | inconclusive [inhibitor, single point] | 
Cc1cc(C)n(CCc2nc(-c3cccs3)cs2)n1 | inconclusive [inhibitor, single point] | 
O=C1NC2=C(CCc3ccccc32)C(c2ccccc2)N1 (configuration not stated) |  | inactive: -0.788%
CCCCN(C(=O)c1ccc(-c2ccc([N+](=O)[O-])cc2)o1)c1c(N)n(CC(C)C)c(=O)[nH]c1=O | inconclusive [inhibitor, single point] | 
COc1ccc(CNC(NC(=O)c2ccccc2)(C(F)(F)F)C(F)(F)F)cc1 | inconclusive [inhibitor, single point] | 
Cc1c(C(=O)NC(=S)Nc2ccccc2N2CCCC2)cccc1[N+](=O)[O-] | inconclusive [inhibitor, single point] | 
Cc1sc2nc(SCC(=O)Nc3c(C)n(C)n(-c4ccccc4)c3=O)n(C)c(=O)c2c1C |  | inactive: -25.9%
COC(=O)c1cnc(Oc2ccc(NC(=O)NC(=O)c3c(OC)cccc3OC)cc2)cc1C(F)(F)F | active: 1.16 µM | 
O=C(c1cc2cc(Br)ccc2o1)N1CCN(c2ccccc2)CC1 |  | inactive: -1.63%
CCc1ccc2oc(-c3cccc(NC(=O)COc4ccccc4Cl)c3)nc2c1 |  | inactive: -6.38%

Compound | Potency | activity change, negative = growth inhibition
CCCCC(=O)Nc1ccc(C)c(S(=O)(=O)N2CCCCCC2)c1 | inconclusive [inhibitor, single point] | 
O=C(c1ccccc1)c1cc2ccc(O)cc2oc1=O | inconclusive [inhibitor, single point] | 
Cc1ccc(-n2nnnc2Sc2nc([N+](=O)[O-])nn2C)cc1C | inconclusive [inhibitor, single point] | 
CCOC(=O)c1nn(-c2ccc(C)cc2)c(=O)cc1OCC(=O)Nc1cc(C)ccc1OC | inconclusive [inhibitor, partial curve] | 
CCN(CC)S(=O)(=O)c1ccc(Cc2ncc(C(F)(F)F)cc2Cl)s1 | inconclusive [inhibitor, single point] | 
CCN(CC)C(=O)c1ccc2c(c1)N(Cc1ccccc1F)C(=O)c1ccccc1S2=O (configuration not stated) |  | inactive: -21.7%
Cc1ccc(C2CCN(C(=S)NC(C)(C)C)C2)cc1 (configuration not stated) | inconclusive [inhibitor, single point] | 
CCO[C@H]1OC(C(=O)Nc2ccccc2)=C[C@@H](c2csc3ccccc23)[C@@H]1CCCO | inconclusive [inhibitor, single point] | 
N#Cc1ccccc1COC(=O)c1cccc(S(=O)(=O)N2CCCC2)c1 |  | inactive: 11.6%
COc1ccc2c(C(=O)NCCCCO)c(-c3ccc(S(C)(=O)=O)cc3)sc2c1 | inconclusive [inhibitor, single point] | 
CN(Cc1ccccc1)c1ccc(/C=C/c2sc3ccccc3[n+]2C)cc1 | active: 0.0891 µM | 
Cc1ccc(C)c(N(C)S(=O)(=O)c2ccc3[nH]cc(C(=O)NCCN4CCOCC4)c(=O)c3c2)c1 |  | inactive: -24.5%
COCCNc1nc(-c2cccc(NS(C)(=O)=O)c2)nc2ccccc12 | inconclusive [inhibitor, single point] | 
COc1ccc(N2CCN(CCS(=O)(=O)c3cc(Cl)ccc3Cl)CC2)cc1 | inconclusive [inhibitor, single point] | 
NS(=O)(=O)c1ccc(NC(=S)Nc2nn(Cc3ccc(Cl)cc3Cl)cc2Cl)cc1 | inconclusive [inhibitor, single point] | 
CCO[C@H]1OC(C(=O)N2CCN(Cc3ccc4c(c3)OCO4)CC2)=C[C@@H](c2cn(C(C)=O)c3ccccc23)[C@@H]1CCCO | inconclusive [inhibitor, single point] | 
Cc1cccc(C(=O)n2nc(-c3cccnc3)nc2NCc2ccc(F)cc2)c1 |  | inactive: -14.1%
O=C(c1ccccc1)n1c2ccccc2c(=O)n1-c1ccccc1CCl | inconclusive [inhibitor, single point] | 
CC12CCC(=O)N1C(C(=O)N1CCN(S(=O)(=O)c3cccc(C(F)(F)F)c3)CC1)CS2 (configuration not stated) |  | inactive: -7.65%
Cc1ccc2nc3c(cc(C(=O)NC4CCS(=O)(=O)C4)n3Cc3ccccc3)c(=O)n2c1 (configuration not stated) | inconclusive [inhibitor, single point] | 
CCCCNC(=O)CCn1nc(-c2ccc(Cl)cc2)c2ccccc2c1=O | inconclusive [inhibitor, single point] | 
COc1ccccc1NS(=O)(=O)c1cc(NC(=S)Nc2cc(C)cc(C)c2)ccc1Cl | active: 11.6 µM | 
O=C(NC(=S)N(CCCCO)C1CCCCC1)c1sc2ccccc2c1Cl | active: 16.4 µM | 

Compound | Potency | activity change, negative = growth inhibition
COc1cccc(C2CC(=O)N3CN(c4ccccc4F)CSC3=C2C#N)c1 (configuration not stated) | inconclusive [inhibitor, single point] | 
CC(NC(=O)c1ccc(CS(=O)(=O)c2cccc(C(F)(F)F)c2)o1)c1ccc2c(c1)OCCO2 (configuration not stated) |  | inconclusive: -30.6% [inhibitor]
CC(=O)c1ccc(CCCc2ccc(C(C)=O)cc2)cc1 | inconclusive [inhibitor, single point] | 
Cn1c(=O)[nH]c(=O)c2c1nc(CN1CCN(c3ccccc3)CC1)n2Cc1c(F)cccc1Cl | inconclusive [inhibitor, single point] | 
CCCS(=O)(=O)NC(=O)C1(C)CCN(C(=O)c2cccc(C(F)(F)F)c2)C1 (configuration not stated) | inconclusive [inhibitor, full curve, poor fit] | 
O=C(CSc1ccc(-c2cccnc2)nn1)Nc1ccccc1 |  | inactive: -3.12%
C[C@H]1CN([C@@H](C)CO)S(=O)(=O)c2ccc(C#CC3(O)CCCC3)cc2O[C@@H]1CN(C)C(=O)Cc1cccnc1 |  | inactive: -24.2%
COc1ccc(-c2cc(C)no2)cc1S(=O)(=O)N1CCCC(C)C1 (configuration not stated) | inconclusive [inhibitor, single point] | 
Nc1c(Cl)ncnc1N1CCOCC1 |  | inactive: -10.6%
CC(=O)Oc1ccc(Cn2c(C)c(C(=O)NCc3cccc(C(F)(F)F)c3)sc2=O)cc1 | inconclusive [inhibitor, single point] | 
CC(C)CCNC(=O)c1cc(-c2ccc(Br)s2)nc2ccccc12 | active: 14.6 µM | 
Cc1noc(C)c1CSCC(=O)Nc1cc(S(=O)(=O)N2CCCCC2)ccc1OC(C)C | active: 11.6 µM | 
CNC(=S)N/N=C/c1cn(Cc2ccc(F)cc2)c2ccccc12 | active: 16.4 µM | 
Cc1cc(NC(=O)C2CCC2)n(-c2ccccn2)n1 | inconclusive [inhibitor, single point] | 
CC(C)(C)c1ccc(C(=O)Nc2ccc(NC(=O)c3ccc(Cl)c(Cl)c3)cc2)cc1 | active: 11.6 µM | 
COc1ccc([C@@H]2[C@@H]3C(=O)N(C(C)(C)C)C(=O)[C@@H]3[C@]3(Cc4ccccc4)C(=O)N(c4cccc(F)c4)C(=O)N23)cc1 | inconclusive [inhibitor, single point] | 
Cc1[nH]c2c(C)cccc2c1CN1CCC(CO)(Cc2ccccc2)CC1 | inconclusive [inhibitor, single point] | 
CC1CCC(C(=O)NC(C(=O)N2CCc3ccccc3C2)C(C)C)CC1 (configuration not stated) | active: 16.4 µM | 
COc1cc(-c2[nH]ncc2CN(C)Cc2nonc2C)cc(OC)c1OC | inconclusive [inhibitor, single point] | 
COc1cc(C2=NOC(C(=O)Nc3ccc(C)cc3)C2)cc(OC)c1OC (configuration not stated) | active: 12.6 µM | 
CCOc1ccccc1N(CC(=O)N/N=C/c1cc(Br)ccc1OC)S(C)(=O)=O | inconclusive [inhibitor, single point] | 
